Test results taken from the supplement of paper PMC8728848.
The list shows a part of the results.

What was measured:
Assay in all cases: glycan array binding signal (z-score within array); higher = stronger binding
Details in all cases: glycan notation: IUPAC condensed, linker removed; mutation: E41A
[1] = target: Neu5Ac(a2-3)Gal(b1-4)GlcNAc(b1-2)Man(a1-3)[Neu5Ac(a2-6)Gal(b1-4)GlcNAc(b1-2)Man(a1-6)]Man(b1-4)GlcNAc(b1-4)GlcNAc
Procedure, shortened: (§1)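 Glycan array binding is given as a within-array Z-score, which can be read as non-binding when negative. The arrays, 3228 of them, came from the Consortium for Functional Glycomics database and were retained only where the protein sequence was available. Z-scores were averaged across arrays of the same protein sequence at different concentrations or buffers and across linkers.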

[2] = target: Neu5Ac(a2-3)Gal(b1-4)GlcNAc(b1-2)[Neu5Ac(a2-3)Gal(b1-4)GlcNAc(b1-4)]Man(a1-3)[GlcNAc(b1-4)][Neu5Ac(a2-3)Gal(b1-4)GlcNAc(b1-2)[Neu5Ac(a2-3)Gal(b1-4)GlcNAc(b1-6)]Man(a1-6)]Man(b1-4)GlcNAc(b1-4)GlcNAc
Procedure, shortened: as §1

[3] = target: Neu5Ac(a2-3)Gal(b1-4)GlcNAc(b1-2)[Neu5Ac(a2-3)Gal(b1-4)GlcNAc(b1-4)]Man(a1-3)[GlcNAc(b1-4)][Neu5Ac(a2-3)Gal(b1-4)GlcNAc(b1-4)Man(a1-6)]Man(b1-4)GlcNAc(b1-4)GlcNAc
Procedure, shortened: as §1

[4] = target: Neu5Ac(a2-3)Gal(b1-4)GlcNAc(b1-2)[Neu5Ac(a2-3)Gal(b1-4)GlcNAc(b1-6)]Man(a1-6)[Neu5Ac(a2-3)Gal(b1-4)GlcNAc(b1-2)Man(a1-3)][GlcNAc(b1-4)]Man(b1-4)GlcNAc(b1-4)GlcNAc
Procedure, shortened: as §1

[5] = target: Neu5Ac(a2-3)Gal(b1-4)GlcNAc(b1-3)Gal
Procedure, shortened: as §1

[6] = target: Neu5Ac(a2-3)Gal(b1-4)GlcNAc(b1-3)Gal(b1-3)GlcNAc
Procedure, shortened: as §1

[7] = target: Neu5Ac(a2-3)Gal(b1-4)GlcNAc(b1-3)Gal(b1-4)GlcNAc
Procedure, shortened: as §1

[8] = target: Neu5Ac(a2-3)Gal(b1-4)GlcNAc(b1-3)Gal(b1-4)GlcNAc(b1-2)Man(a1-3)[Neu5Ac(a2-3)Gal(b1-4)GlcNAc(b1-3)Gal(b1-4)GlcNAc(b1-2)Man(a1-6)]Man(b1-4)GlcNAc(b1-4)GlcNAc
Procedure, shortened: as §1

[9] = target: Neu5Ac(a2-3)Gal(b1-4)GlcNAc(b1-3)Gal(b1-4)GlcNAc(b1-3)Gal(b1-4)GlcNAc
Procedure, shortened: as §1

[10] = target: Neu5Ac(a2-3)Gal(b1-4)GlcNAc(b1-3)Gal(b1-4)GlcNAc(b1-3)Gal(b1-4)GlcNAc(b1-2)Man(a1-3)[Neu5Ac(a2-3)Gal(b1-4)GlcNAc(b1-3)Gal(b1-4)GlcNAc(b1-3)Gal(b1-4)GlcNAc(b1-2)Man(a1-6)]GalNAc
Procedure, shortened: as §1

[11] = target: Neu5Ac(a2-3)Gal(b1-4)GlcNAc(b1-3)Gal(b1-4)GlcNAc(b1-3)GalNAc
Procedure, shortened: as §1

[12] = target: Neu5Ac(a2-3)Gal(b1-4)GlcNAc(b1-3)Gal(b1-4)GlcNAc(b1-3)[Neu5Ac(a2-3)Gal(b1-4)GlcNAc(b1-3)Gal(b1-4)GlcNAc(b1-6)]GalNAc
Procedure, shortened: as §1

[13] = target: Neu5Ac(a2-3)Gal(b1-4)GlcNAc(b1-3)Gal(b1-4)GlcNAc(b1-6)[Gal(b1-3)]GalNAc
Procedure, shortened: as §1

[14] = target: Neu5Ac(a2-3)Gal(b1-4)GlcNAc(b1-3)Gal(b1-4)[Fuc(a1-3)]GlcNAc
Procedure, shortened: as §1

[15] = target: Neu5Ac(a2-3)Gal(b1-4)GlcNAc(b1-3)GalNAc
Procedure, shortened: as §1

[16] = target: Neu5Ac(a2-3)Gal(b1-4)GlcNAc(b1-3)[Neu5Ac(a2-3)Gal(b1-4)GlcNAc(b1-6)]GalNAc
Procedure, shortened: as §1

[17] = target: Neu5Ac(a2-3)Gal(b1-4)GlcNAc(b1-6)GalNAc
Procedure, shortened: as §1

[18] = target: Neu5Ac(a2-3)Gal(b1-4)GlcNAc(b1-6)[Gal(b1-3)]GalNAc
Procedure, shortened: as §1

[19] = target: Neu5Ac(a2-3)Gal(b1-4)GlcNAc(b1-6)[Neu5Ac(a2-3)Gal(b1-3)]GalNAc
Procedure, shortened: as §1

[20] = target: Neu5Ac(a2-3)Gal(b1-4)GlcNAc6S
Procedure, shortened: as §1

[21] = target: Neu5Ac(a2-3)Gal(b1-4)[Fuc(a1-3)]GlcNAc
Procedure, shortened: as §1

[22] = target: Neu5Ac(a2-3)Gal(b1-4)[Fuc(a1-3)]GlcNAc(b1-2)Man
Procedure, shortened: as §1

[23] = target: Neu5Ac(a2-3)Gal(b1-4)[Fuc(a1-3)]GlcNAc(b1-3)Gal
Procedure, shortened: as §1

[24] = target: Neu5Ac(a2-3)Gal(b1-4)[Fuc(a1-3)]GlcNAc(b1-3)Gal(b1-4)GlcNAc
Procedure, shortened: as §1

[25] = target: Neu5Ac(a2-3)Gal(b1-4)[Fuc(a1-3)]GlcNAc(b1-3)Gal(b1-4)[Fuc(a1-3)]GlcNAc(b1-3)Gal(b1-4)[Fuc(a1-3)]GlcNAc
Procedure, shortened: as §1

[26] = target: Neu5Ac(a2-3)Gal(b1-4)[Fuc(a1-3)]GlcNAc(b1-3)GalNAc
Procedure, shortened: as §1

[27] = target: Neu5Ac(a2-3)Gal(b1-4)[Fuc(a1-3)]GlcNAc(b1-6)[Gal(b1-3)]GalNAc
Procedure, shortened: as §1

[28] = target: Neu5Ac(a2-3)Gal(b1-4)[Fuc(a1-3)]GlcNAc(b1-6)[Neu5Ac(a2-3)Gal(b1-3)]GalNAc
Procedure, shortened: as §1

[29] = target: Neu5Ac(a2-3)Gal(b1-4)[Fuc(a1-3)]GlcNAc6S
Procedure, shortened: as §1

[30] = target: Neu5Ac(a2-3)Gal6S(b1-4)GlcNAc
Procedure, shortened: as §1

[31] = target: Neu5Ac(a2-3)Gal6S(b1-4)[Fuc(a1-3)]GlcNAc
Procedure, shortened: as §1

Neu5Ac(a2-3)GalNAc = target: Neu5Ac(a2-3)GalNAc
Procedure, shortened: as §1

[32] = target: Neu5Ac(a2-3)GalNAc(b1-4)GlcNAc
Procedure, shortened: as §1

[33] = target: Neu5Ac(a2-3)[GalNAc(b1-4)]Gal(b1-4)Glc
Procedure, shortened: as §1

[34] = target: Neu5Ac(a2-3)[GalNAc(b1-4)]Gal(b1-4)GlcNAc
Procedure, shortened: as §1

[35] = target: Neu5Ac(a2-3)[GalNAc(b1-4)]Gal(b1-4)GlcNAc(b1-3)GalNAc
Procedure, shortened: as §1

[36] = target: Neu5Ac(a2-3)[Neu5Ac(a2-6)]GalNAc
Procedure, shortened: as §1

Neu5Ac(a2-6)Gal = target: Neu5Ac(a2-6)Gal
Procedure, shortened: as §1

[37] = target: Neu5Ac(a2-6)Gal(b1-3)GlcNAc(b1-3)[Gal(b1-4)GlcNAc(b1-6)]Gal(b1-4)Glc
Procedure, shortened: as §1

Neu5Ac(a2-6)Gal(b1-4)Glc = target: Neu5Ac(a2-6)Gal(b1-4)Glc
Procedure, shortened: as §1

[38] = target: Neu5Ac(a2-6)Gal(b1-4)GlcNAc
Procedure, shortened: as §1

[39] = target: Neu5Ac(a2-6)Gal(b1-4)GlcNAc(b1-2)Man
Procedure, shortened: as §1

[40] = target: Neu5Ac(a2-6)Gal(b1-4)GlcNAc(b1-2)Man(a1-3)Man(b1-4)GlcNAc(b1-4)GlcNAc
Procedure, shortened: as §1

[41] = target: Neu5Ac(a2-6)Gal(b1-4)GlcNAc(b1-2)Man(a1-3)[Gal(b1-4)GlcNAc(b1-2)Man(a1-6)]Man(b1-4)GlcNAc(b1-4)GlcNAc
Procedure, shortened: as §1

[42] = target: Neu5Ac(a2-6)Gal(b1-4)GlcNAc(b1-2)Man(a1-3)[GlcNAc(b1-4)][Neu5Ac(a2-6)Gal(b1-4)GlcNAc(b1-2)Man(a1-6)]Man(b1-4)GlcNAc(b1-4)GlcNAc
Procedure, shortened: as §1

B1: CVN-E41G (protein)
chain: MHHHHHHENLYFQSGNFSQACYNSAIQGSVLTSTCIRTNGGYNTSSIDLNSVIANVDGSLKWQGSNFIETCRNTQLAGSSELAAECKTRAQQFVSTKINLDDHIAAIDGTLKYE
**Q.** Which results are given for B1?
**A.** glycan array binding signal (z-score) [1]: -0.136; glycan array binding signal (z-score) [2]: -0.177; glycan array binding signal (z-score) [3]: -0.171; glycan array binding signal (z-score) [4]: -0.141; glycan array binding signal (z-score) [5]: -0.214; glycan array binding signal (z-score) [6]: -0.228; glycan array binding signal (z-score) [7]: -0.075; glycan array binding signal (z-score) [8]: 0.015; glycan array binding signal (z-score) [9]: -0.131; glycan array binding signal (z-score) [10]: 0.18; glycan array binding signal (z-score) [11]: -0.174; glycan array binding signal (z-score) [12]: -0.218; glycan array binding signal (z-score) [13]: -0.198; glycan array binding signal (z-score) [14]: -0.225; glycan array binding signal (z-score) [15]: -0.003; glycan array binding signal (z-score) [16]: -0.228; glycan array binding signal (z-score) [17]: -0.142; glycan array binding signal (z-score) [18]: 0.106; glycan array binding signal (z-score) [19]: -0.227; glycan array binding signal (z-score) [20]: -0.24; glycan array binding signal (z-score) [21]: -0.239; glycan array binding signal (z-score) [22]: -0.141; glycan array binding signal (z-score) [23]: -0.245; glycan array binding signal (z-score) [24]: 0.004; glycan array binding signal (z-score) [25]: 0.027; glycan array binding signal (z-score) [26]: 0.083; glycan array binding signal (z-score) [27]: -0.212; glycan array binding signal (z-score) [28]: -0.162; glycan array binding signal (z-score) [29]: -0.159; glycan array binding signal (z-score) [30]: -0.201; glycan array binding signal (z-score) [31]: -0.235; glycan array binding signal (z-score) (Neu5Ac(a2-3)GalNAc): 0.085; glycan array binding signal (z-score) [32]: -0.174; glycan array binding signal (z-score) [33]: -0.219; glycan array binding signal (z-score) [34]: -0.24; glycan array binding signal (z-score) [35]: -0.192; glycan array binding signal (z-score) [36]: -0.12; glycan array binding signal (z-score) (Neu5Ac(a2-6)Gal): -0.235; glycan array binding signal (z-score) [37]: -0.182; glycan array binding signal (z-score) (Neu5Ac(a2-6)Gal(b1-4)Glc): -0.224; glycan array binding signal (z-score) [38]: -0.216; glycan array binding signal (z-score) [39]: 0.177; glycan array binding signal (z-score) [40]: -0.189; glycan array binding signal (z-score) [41]: -0.165; glycan array binding signal (z-score) [42]: -0.208
